# Data as given in patent US11117947B2, “Double-acylated GLP-1 derivatives” (Novo Nordisk A/S, priority 2011, dated 2021).
# At least one structure is not confirmed: it was looked up by name or label, or the drawing left a doubt. Numbered stars: 1 amine (or outer) side, 2 acyl side, 3 side chain; on linkers, the order of the positions; unused ones are H or OH. Side chains are listed from the residue outwards. Peptide text beside a SMILES is read from it. * marks the point of attachment. Decanoyl(10-(4-HOOC-PhO)) = O=C(O)c1ccc(OCCCCCCCCCC(=O)*)cc1; γGlu = O=C(O)[C@H](CCC(=O)[*:2])N[*:1]; AEEA = NCCOCCOCC(=O)O
# Columns and labels:
# [1] = Effect on food intake in pigs; format: in vivo, pig; conditions: LYD pigs, single s.c. dose of 3 nmol/kg
# [2] = biological target: T1, human GLP-1 receptor (Homo sapiens, UniProt P43220); test: GLP-1 receptor binding: displacement of 125I-GLP-1 (SPA) at low and high albumin; conditions: 2.0% HSA vs 0.001% HSA
# T1 construct: expressed in transfected cells; membranes
# Outline: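 Membranes from hamster cells stably transfected with the receptor, with WGA SPA beads and 0.06 nM [^125I]-GLP-1(7-36)NH2, incubated 120 min at 30 °C with shaking.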
# T1 sequence (P43220 24-463): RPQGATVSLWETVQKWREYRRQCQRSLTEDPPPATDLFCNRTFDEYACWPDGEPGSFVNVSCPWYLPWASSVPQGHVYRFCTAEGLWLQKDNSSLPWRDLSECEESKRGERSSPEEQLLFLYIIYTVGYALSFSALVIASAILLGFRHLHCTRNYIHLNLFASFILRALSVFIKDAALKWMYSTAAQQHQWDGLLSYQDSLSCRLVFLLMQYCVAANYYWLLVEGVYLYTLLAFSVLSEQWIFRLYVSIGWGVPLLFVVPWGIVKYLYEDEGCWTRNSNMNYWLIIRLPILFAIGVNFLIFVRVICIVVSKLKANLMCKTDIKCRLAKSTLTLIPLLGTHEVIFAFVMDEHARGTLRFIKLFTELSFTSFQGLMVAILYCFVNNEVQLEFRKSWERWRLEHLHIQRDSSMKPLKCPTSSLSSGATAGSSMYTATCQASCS
Compound,"reduction of food intake on day 1 ([1]; day 1, vs vehicle)","reduction of food intake on day 2 ([1]; day 2, vs vehicle)",Ratio [(IC50/nM) high HSA]/[(IC50/nM) low HSA] [2],effect on food intake ([1]; vs vehicle)
"CC[C@H](C)[C@H](NC(=O)[C@H](Cc1ccccc1)NC(=O)[C@H](CCCCNC(=O)COCCOCCNC(=O)COCCOCCNC(=O)CC[C@H](NC(=O)CCCCCCCCCOc1ccc(C(=O)O)cc1)C(=O)O)NC(=O)[C@H](CCCNC(=N)N)NC(=O)[C@H](C)NC(=O)[C@H](C)NC(=O)[C@H](CCC(N)=O)NC(=O)[C@H](CCC(=O)O)NC(=O)[C@H](CCC(=O)O)NC(=O)[C@H](CC(C)C)NC(=O)[C@H](Cc1ccc(O)cc1)NC(=O)[C@H](CO)NC(=O)[C@H](CO)NC(=O)[C@@H](NC(=O)[C@H](CC(=O)O)NC(=O)[C@H](CO)NC(=O)[C@@H](NC(=O)[C@H](Cc1ccccc1)NC(=O)[C@@H](NC(=O)CNC(=O)[C@H](CCC(=O)O)NC(=O)[C@H](C)NC(=O)[C@@H](N)Cc1c[nH]cn1)[C@@H](C)O)[C@@H](C)O)C(C)C)C(=O)N[C@@H](CCC(=O)O)C(=O)N[C@@H](Cc1c[nH]c2ccccc12)C(=O)N[C@@H](CC(C)C)C(=O)N[C@H](C(=O)N[C@@H](CCCNC(=N)N)C(=O)NCC(=O)N[C@@H](CCCCNC(=O)COCCOCCNC(=O)COCCOCCNC(=O)CC[C@H](NC(=O)CCCCCCCCCOc1ccc(C(=O)O)cc1)C(=O)O)C(=O)NCC(=O)N[C@@H](CCC(=O)O)C(=O)NCC(=O)O)C(C)C [Example 2, N^ε27-[2-[2-[2-[[2-[2-[2-[[(4S)-4-carboxy-4-[10-(4-carboxyphenoxy)decanoylamino]butanoyl]amino]ethoxy]ethoxy]acetyl]amino]ethoxy]ethoxy]acetyl], N^ε36-[2-[2-[2-[[2-[2-[2-[[(4S)-4-carboxy-4-[10-(4-carboxyphenoxy)decanoylamino]butanoyl]amino]ethoxy]ethoxy]acetyl]amino]ethoxy]ethoxy]acetyl]-[Glu^22,Arg^26,Lys^27,Glu^30,Arg^34,Lys^36]-GLP-1-(7-37)-peptidyl-Glu-Gly] (H-HAEGTFTSDVSSYLEEQAARK([AEEA-AEEA-γGlu-Decanoyl(10-(4-HOOC-PhO))])FIEWLVRGK([AEEA-AEEA-γGlu-Decanoyl(10-(4-HOOC-PhO))])GEG-OH; N-terminus and C-terminus assumed)",23%,35%,821,–
"CC[C@H](C)[C@H](NC(=O)[C@H](Cc1ccccc1)NC(=O)[C@H](CCCCNC(=O)COCCOCCNC(=O)COCCOCCNC(=O)CC[C@H](NC(=O)CCCCCCCCCOc1ccc(C(=O)O)cc1)C(=O)O)NC(=O)[C@H](Cc1c[nH]cn1)NC(=O)[C@H](C)NC(=O)[C@H](C)NC(=O)[C@H](CCC(N)=O)NC(=O)CNC(=O)[C@H](CCC(=O)O)NC(=O)[C@H](CC(C)C)NC(=O)[C@H](Cc1ccc(O)cc1)NC(=O)[C@H](CO)NC(=O)[C@H](CO)NC(=O)[C@@H](NC(=O)[C@H](CC(=O)O)NC(=O)[C@H](CO)NC(=O)[C@@H](NC(=O)[C@H](Cc1ccccc1)NC(=O)[C@@H](NC(=O)CNC(=O)[C@H](CCC(=O)O)NC(=O)[C@H](C)NC(=O)[C@@H](N)Cc1c[nH]cn1)[C@@H](C)O)[C@@H](C)O)C(C)C)C(=O)N[C@@H](CCC(=O)O)C(=O)N[C@@H](Cc1c[nH]c2ccccc12)C(=O)N[C@@H](CC(C)C)C(=O)N[C@H](C(=O)N[C@@H](CCCNC(=N)N)C(=O)NCC(=O)N[C@@H](CCCCNC(=O)COCCOCCNC(=O)COCCOCCNC(=O)CC[C@H](NC(=O)CCCCCCCCCOc1ccc(C(=O)O)cc1)C(=O)O)C(=O)NCC(=O)N[C@@H](CCC(=O)O)C(=O)O)C(C)C [Example 10, N^ε27-[2-[2-[2-[[2-[2-[2-[[(4S)-4-carboxy-4-[10-(4-carboxyphenoxy)decanoylamino]butanoyl]amino]ethoxy]ethoxy]acetyl]amino]ethoxy]ethoxy]acetyl], N^ε36-[2-[2-[2-[[2-[2-[2-[[(4S)-4-carboxy-4-[10-(4-carboxyphenoxy)decanoylamino]butanoyl]amino]ethoxy]ethoxy]acetyl]amino]ethoxy]ethoxy]acetyl]-[His^26,Lys^27,Glu^30,Arg^34,Lys^36]-GLP-1-(7-37)-peptidyl-Glu] (H-HAEGTFTSDVSSYLEGQAAHK([AEEA-AEEA-γGlu-Decanoyl(10-(4-HOOC-PhO))])FIEWLVRGK([AEEA-AEEA-γGlu-Decanoyl(10-(4-HOOC-PhO))])GE-OH; N-terminus and C-terminus assumed)",–,–,70,no effect
